Source: PMC4336329 (PLoS ONE, 2015)
Out of some 310,000 compounds screened, about 2,200 (0.71%) showed an effect of 50% or more. Effects have a minus sign here. The list shows a part of the results.

These compounds were tested against human ether-à-go-go-related gene (hERG) potassium channel (human, UniProt Q12809) (assay: primary screen, population patch clamp on CHO cells stably expressing hERG).
Chain of human ether-à-go-go-related gene (hERG) potassium channel (Q12809 whole entry, looked up): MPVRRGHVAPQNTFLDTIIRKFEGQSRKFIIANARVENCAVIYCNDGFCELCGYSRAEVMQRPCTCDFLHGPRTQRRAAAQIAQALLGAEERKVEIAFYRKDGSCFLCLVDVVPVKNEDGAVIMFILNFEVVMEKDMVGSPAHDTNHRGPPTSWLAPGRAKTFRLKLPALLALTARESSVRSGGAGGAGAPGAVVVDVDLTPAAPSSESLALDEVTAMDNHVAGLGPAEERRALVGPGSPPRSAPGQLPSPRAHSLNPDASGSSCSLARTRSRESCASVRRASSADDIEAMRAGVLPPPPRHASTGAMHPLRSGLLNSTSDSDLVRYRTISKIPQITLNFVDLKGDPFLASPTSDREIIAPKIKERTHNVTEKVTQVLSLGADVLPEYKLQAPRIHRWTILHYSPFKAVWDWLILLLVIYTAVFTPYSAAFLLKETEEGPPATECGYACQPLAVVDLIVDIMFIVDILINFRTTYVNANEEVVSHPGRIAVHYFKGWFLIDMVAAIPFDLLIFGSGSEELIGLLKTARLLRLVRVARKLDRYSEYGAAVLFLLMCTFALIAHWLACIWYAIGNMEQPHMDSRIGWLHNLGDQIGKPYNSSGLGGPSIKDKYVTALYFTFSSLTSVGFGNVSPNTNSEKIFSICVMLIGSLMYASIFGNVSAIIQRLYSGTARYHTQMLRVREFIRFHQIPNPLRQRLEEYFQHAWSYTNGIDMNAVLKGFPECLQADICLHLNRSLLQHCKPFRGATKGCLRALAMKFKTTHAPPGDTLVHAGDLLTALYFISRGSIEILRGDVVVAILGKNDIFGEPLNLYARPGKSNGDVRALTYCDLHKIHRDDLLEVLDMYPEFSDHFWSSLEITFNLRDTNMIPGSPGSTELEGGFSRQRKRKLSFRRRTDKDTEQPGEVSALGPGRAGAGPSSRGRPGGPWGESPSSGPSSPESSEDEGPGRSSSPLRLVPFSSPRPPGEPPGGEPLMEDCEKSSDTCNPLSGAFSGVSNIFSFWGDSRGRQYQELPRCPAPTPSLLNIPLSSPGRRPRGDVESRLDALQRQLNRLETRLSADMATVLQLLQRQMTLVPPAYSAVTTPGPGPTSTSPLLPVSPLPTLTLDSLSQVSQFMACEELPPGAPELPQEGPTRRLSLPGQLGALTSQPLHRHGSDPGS

First: O=Cc1ccc(OCc2cn3ccccc3n2)cc1
Second: CCOc1ccc(S(=O)(=O)NC(=O)c2ccccc2)cc1
The “hERG current change (%, negative = inhibition) at 1uM” value of the first is lower: 4.48% for the first, 7.5% for the second.

Going from `Cc1nc(SCC(=O)Nc2ccc3c(c2)OCO3)c(C#N)c2c1CCCC2` to `Cc1ccc(NC(=O)CNCc2ccc(Cl)cc2Cl)cc1S(=O)(=O)N(C)C`, the “hERG current change (%, negative = inhibition) at 1uM” value rises from 0.244% to 5.16%.

Going from `CN(C)CCCNc1oc(-c2ccccc2Cl)nc1S(=O)(=O)c1ccccc1` to `Cc1ccsc1C(=O)N(Cc1nnc(-c2ccccc2Cl)o1)C1CC1`, the “hERG current change (%, negative = inhibition) at 1uM” value rises from -7.51% to 4.32%.

Going from `CCN(CC(=O)Nc1ccc(OC)cc1)C(=O)C1CCN(C(=O)c2ccc(Cl)cc2)CC1` to `CCN1CCN(C(=O)c2ccc(OCC(=O)Nc3ccc(F)cc3)c(OC)c2)CC1`, the “hERG current change (%, negative = inhibition) at 1uM” value falls from -0.131% to -2.25%.

First: CC(C)OC(=O)CSc1nnc2c(n1)[nH]c1ccc(F)cc12
Second: O=C(CSc1ccc2nnc(-c3cccnc3)n2n1)NCC1CCCO1 (centres unmarked)
The “hERG current change (%, negative = inhibition) at 1uM” value of the first is higher: 4.61% for the first, -2.62% for the second.

Compared with `N#C/C(=C\c1ccc(OCCN2CCOCC2)cc1)C(=O)Nc1ccccc1F`, `CCOc1ccc(/C=N/OCC(=O)Nc2cc(S(=O)(=O)N3CCOCC3)ccc2OC)cc1` is lower in “hERG current change (%, negative = inhibition) at 1uM” value: 12.6% for the first, 11.7% for the second.

Going from `CC(C)c1ccc(OCc2ccc(C(=O)NN3CCN(C)CC3)o2)cc1` to `CN1CCN(c2ccc(S(=O)(=O)N3CCOCC3)cc2NC(=O)CCc2ccccc2)CC1`, the “hERG current change (%, negative = inhibition) at 1uM” value rises from -6.94% to 1.28%.

Going from `Cc1ccc(/C=C/C(=O)O)cc1S(=O)(=O)NCCCO` to `O=C(NCCOc1ccccc1)c1cccc(S(=O)(=O)NCc2ccccc2)c1`, the “hERG current change (%, negative = inhibition) at 1uM” value rises from 9.29% to 11.8%.

First: CCC(=O)Nc1ccc2nc(C3CC3)n(Cc3ccccc3)c(=O)c2c1
Second: O=C(Cn1nc([N+](=O)[O-])nc1Br)NC(c1ccccc1)c1ccccc1
The “hERG current change (%, negative = inhibition) at 1uM” value of the first is lower: 8.03% for the first, 8.47% for the second.

First: N/C(=N/O)C(c1ccccc1)c1ccccc1
Second: CC(=O)N(C)N1c2ccccc2CCc2ccccc21
The “hERG current change (%, negative = inhibition) at 1uM” value of the first is lower: 6.87% for the first, 18.6% for the second.

Going from `O=C(NCc1cccnc1)c1ccc(S(=O)(=O)Nc2ccccc2)cc1` to `NS(=O)(=O)c1ccc(CCNC(=O)CCCCCNc2nc(=S)[nH]c3ccccc23)cc1`, the “hERG current change (%, negative = inhibition) at 1uM” value rises from -13.4% to 12.5%.

Going from `CN(Cc1cn(C)nc1-c1ccccc1F)C1CCOC1` (centres unmarked) to `Cl.Fc1cccc(CN(C2=NCCN2)c2c(Cl)cccc2Cl)c1`, the “hERG current change (%, negative = inhibition) at 1uM” value rises from 11% to 12.6%.

First: CCOc1[nH]n(-c2ccc(Cl)cc2)c(=O)c1C=Nc1ccc(Cl)cc1
Second: Cn1cccc1C(=O)C(=O)Nc1ccc(Cl)cc1
The “hERG current change (%, negative = inhibition) at 1uM” value of the first is higher: 13% for the first, 11.1% for the second.

Going from `NC(=O)c1ccc[n+](CC(=O)c2ccc(Cl)c(Cl)c2)c1.[Br-]` to `Cc1nc([N+](=O)[O-])cn1CC(=O)c1ccc(Cl)cc1`, the “hERG current change (%, negative = inhibition) at 1uM” value rises from 6.15% to 15.2%.

Going from `CCC(C)NC(=O)c1ccccc1C(=O)NC(C)CC` (centres unmarked) to `COc1ccc(CNC(=O)[C@H](C)NC(=O)C2CCN(C(=O)[C@@H](N)CCSC)CC2)cc1`, the “hERG current change (%, negative = inhibition) at 1uM” value rises from 0.641% to 10.7%.

Going from `COc1cccc(CN2CC(C(=O)N(C)CCCC3CCCC3)CCC2=O)c1` (centres unmarked) to `NC(=O)CN1CCN(C2CC(=O)N(CCc3ccccc3)C2=O)CC1` (centres unmarked), the “hERG current change (%, negative = inhibition) at 1uM” value falls from 8.33% to 5.11%.

Going from `COc1cc(S(=O)(=O)N2CCCCCC2)ccc1Cl` to `Cc1cc(C)c2nc(NNC(=O)c3ccc(S(=O)(=O)N4CCCCC4)cc3)sc2c1`, the “hERG current change (%, negative = inhibition) at 1uM” value falls from 9.93% to 8.08%.

Going from `Cc1ccc(C2=NN(C(=O)CCCC(=O)O)C(c3ccco3)C2)cc1` (centres unmarked) to `CCOC(=O)C1CCCN(C(=O)c2ccc3nc(-c4ccccc4)c(-c4ccccc4)nc3c2)C1` (centres unmarked), the “hERG current change (%, negative = inhibition) at 1uM” value rises from 8.42% to 14.7%.

First: O=C(Nc1cc(C(F)(F)F)ccc1N1CCCCC1)c1ccco1
Second: O=C(Oc1cc2oc(=O)cc(-c3ccccc3)c2cc1Cl)C1CCCCC1
The “hERG current change (%, negative = inhibition) at 1uM” value of the first is higher: 15% for the first, 3.15% for the second.

Compared with `CC1(C)C(=O)C2(CCCCC2)C(=O)OC1c1cccc([N+](=O)[O-])c1` (centres unmarked), `COc1ccccc1NC(=O)C1CCN(S(C)(=O)=O)CC1` is higher in “hERG current change (%, negative = inhibition) at 1uM” value: 14.3% for the first, 18.2% for the second.

First: COc1cc(C(C)=O)ccc1OCC(O)CN1CCN(c2ccccn2)CC1 (centres unmarked)
Second: Cc1cccc(N2CCCC2=Nc2ccc(Br)cc2C#N)c1
The “hERG current change (%, negative = inhibition) at 1uM” value of the first is lower: 5.4% for the first, 9.09% for the second.

Going from `Cc1[nH]nc2c1C(c1ccc(N(C)C)cc1)C1=C(CC(C)(C)CC1=O)N2` (centres unmarked) to `Cc1cc(N(C)C)cc(C)[n+]1[O-]`, the “hERG current change (%, negative = inhibition) at 1uM” value falls from 25.2% to 11.7%.
